{"source": "ChEMBL document CHEMBL4888484", "about": "“Replenishing the malaria drug discovery pipeline: Screening and hit evaluation of the MMV Hit Generation Library 1 (HGL1) against asexual blood stage Plasmodium falciparum ,using a nano luciferase reporter read-out” (2022)", "note": "Among all 150,000 compounds or so, about 540 (0.36%) showed an effect of 50% or more. This is one part of the list."}
{"test_system": "Plasmodium falciparum", "experiment": "Primary screen in NF54 nanoGlo assay, in single point, at 2uM, 72h; a lower Z score goes with more inhibition", "assay_type": "functional, Erythrocyte", "conditions": "timepoint 72 hour", "units": {"% Inhibition": "%"}}
{"smiles": "Cc1noc(CS(=O)(=O)Cc2csc(C3CCCCC3)n2)n1", "% Inhibition": 3, "Z score": -0.35}
{"smiles": "Cc1csc2c(N3CC[C@H](N4CCN(C)CC4)[C@H](CCC(=O)O)C3)ncnc12", "% Inhibition": -3, "Z score": 0.52}
{"smiles": "O=C(N[C@H]1CCN2C(=O)c3ccccc3NC(=O)[C@H]12)c1cccc(F)c1", "% Inhibition": -6, "Z score": 0.9}
{"smiles": "O=C1C(n2ccnc2C(O)c2ccccc2)CCN1CC(F)(F)F", "note": "(stereo not drawn)", "% Inhibition": 2, "Z score": -0.19}
{"smiles": "Cc1nn(C)c2nc(NCCc3noc(C4CC4)n3)sc12", "% Inhibition": 11, "Z score": -1.65}
{"smiles": "COc1ccnc(N2CCN([C@@H](C)c3nc(-c4ccccc4C)no3)CC2)n1", "% Inhibition": -10, "Z score": 1.17}
{"smiles": "Nc1ccnc(CNC(=O)C(Cc2ccccc2)Cc2ccccc2)n1", "% Inhibition": -17, "Z score": 1.76}
{"smiles": "Clc1cnc(NCC[C@H]2CCCCN2C2CCCC2)nc1", "% Inhibition": 13, "Z score": -2.41}
{"smiles": "CC(C)c1cc(CNC2C3CCCOC3C2(C)C)on1", "note": "(stereo not drawn)", "% Inhibition": -16, "Z score": 1.97}
{"smiles": "O=C(N[C@H]1CC(=O)N(c2ccc(F)cc2)C1)C1CCCC1", "% Inhibition": -9, "Z score": 1.74}
{"smiles": "Nc1c(C(=O)O)nc2c(Cl)cc(Cl)cn12", "% Inhibition": -10, "Z score": 1.23}
{"smiles": "O=C([C@H]1CCN1)N1CCCCCc2ccccc21", "% Inhibition": -2, "Z score": 0.34}
{"smiles": "O=C(c1ccccc1F)N1CCC(C(=O)N2CCCc3ccccc32)CC1", "% Inhibition": 2, "Z score": -0.32}
{"smiles": "COc1ccc(-n2ncc(Oc3ccc(Cl)cc3)c(Nc3cccc(C(=O)N4CCN(C(C)=O)CC4)c3)c2=O)cc1", "% Inhibition": -11, "Z score": 1.44}
{"smiles": "COc1cc(OC)c(NC(=O)N[C@H]2CCN(c3ccc(F)cc3)C2=O)cc1Cl", "% Inhibition": -9, "Z score": 1.38}
{"smiles": "COc1ccccc1CCCN[C@H]1CCCNC1", "% Inhibition": 0, "Z score": -0.01}
{"smiles": "CNC/C=C/COc1cccc(C(C)(C)C)c1", "% Inhibition": 8, "Z score": -1.36}
{"smiles": "COCn1nccc1S(=O)(=O)N1CCOC[C@H]1c1cccc(F)c1", "% Inhibition": -3, "Z score": 0.42}
{"smiles": "O=C(NCCN1CCC[C@H](CO)C1)NCC1CCCCC1", "% Inhibition": -10, "Z score": 1.05}
{"smiles": "COc1ccc(-c2cc3nc(C4CCN(C(=O)OC(C)(C)C)CC4)c(C(=O)Nc4ccc(C)c(C)c4)cn3n2)cc1", "% Inhibition": -6, "Z score": 0.9}
{"smiles": "C[C@H]1CN(S(=O)(=O)CC2CC2)CCN1S(=O)(=O)CC1CC1", "% Inhibition": -5, "Z score": 0.94}
{"smiles": "CCOC(=O)[C@H](C)N1CCC(Nc2nc(CC)cs2)CC1", "% Inhibition": -11, "Z score": 1.57}
{"smiles": "O=C(c1cc(C2CC2)[nH]n1)N1CC(OCC(F)F)C1", "% Inhibition": 28, "Z score": -3.19}
{"smiles": "Cc1nc(-c2ccc(Cl)s2)sc1C(=O)N[C@H]1CCOC2(CCCC2)C1", "% Inhibition": -5, "Z score": 0.59}
{"smiles": "COCCN1CCn2cc(S(=O)(=O)Nc3ccccc3F)cc2C1=O", "% Inhibition": -2, "Z score": 0.28}
{"smiles": "Cc1ccccc1NC(=O)CC(=O)N(C)CCN1CCCCC1=O", "% Inhibition": -14, "Z score": 1.32}
{"smiles": "CCOC1CC(NC(=O)C2CCCN2c2ncccn2)C12CCCC2", "note": "(stereo not drawn)", "% Inhibition": -3, "Z score": 0.44}
{"smiles": "COc1cccc(C(=O)N(Cc2ccc(F)cc2)c2cccc(CC(=O)NCC3CC3)c2)c1", "% Inhibition": 3, "Z score": -0.56}
{"smiles": "Nc1nc2c(s1)[C@@H](c1cccc(OCCc3ccccc3)c1)CC(=O)N2", "% Inhibition": 5, "Z score": -0.5}
{"smiles": "COc1cccc(C(=O)N2CCC3(CC2)C[C@@H](N(C)Cc2ccccc2)CCO3)c1", "% Inhibition": -9, "Z score": 1.23}
{"smiles": "O=C(O)c1cc(NS(=O)(=O)c2cc(F)ccc2F)ccc1N1CCCCCC1", "% Inhibition": -4, "Z score": 0.67}
{"smiles": "CCC[C@@]1(C2CCN(C(=O)c3onc4c3CCCC4)CC2)NC(=O)N(CCc2ccccn2)C1=O", "% Inhibition": -11, "Z score": 1.42}
{"smiles": "Cn1cnn(CC(=O)NC[C@H]2CCOC3(CCC3)C2)c1=O", "% Inhibition": 3, "Z score": -0.37}
{"smiles": "Cc1nnc(Cc2ccc(-n3ccnc3-c3ccnc(C(C)C)n3)cc2)[nH]1", "% Inhibition": -12, "Z score": 2.05}
{"smiles": "O=C(CC(=O)OCC(=O)N1CCCCCC1)NCC(F)(F)F", "% Inhibition": -7, "Z score": 1.08}
{"smiles": "O=C(Nc1ccc(-c2ccco2)cc1)[C@H]1CCCN(Cc2nc3c(s2)CCCC3)C1", "% Inhibition": 9, "Z score": -1.06}
{"smiles": "O=C(c1cc2ccccc2o1)N1CC(Nc2ccncn2)C1", "% Inhibition": -21, "Z score": 4.28}
{"smiles": "COC(=O)CN1CCCN(CC(=O)Nc2ccc(C)c(C)c2)CC1", "% Inhibition": -3, "Z score": 0.21}
{"smiles": "CC[C@H](NS(=O)(=O)c1cccc(C(=O)N2CCCC2)c1)c1nc(C)no1", "% Inhibition": 2, "Z score": -0.29}
{"smiles": "O=C(NCCn1c(=O)[nH]c2ccsc2c1=O)c1ccn[nH]1", "% Inhibition": -3, "Z score": 0.6}
{"smiles": "O=S(=O)(c1cccc(F)c1)N1CCOc2ccc(COCc3ccccc3)cc2C1", "% Inhibition": 6, "Z score": -0.9}
{"smiles": "CC(C)=CCC[C@@]1(C)CCC(=O)N(C2CCN(c3cnccn3)CC2)C1", "% Inhibition": -6, "Z score": 1.04}
{"smiles": "CC(=O)NCC(=O)N(Cc1ccccc1C(F)(F)F)C1CCCC1", "% Inhibition": -4, "Z score": 0.48}
{"smiles": "CC(=O)c1cc(CN2CCC[C@H](c3nc(C)n[nH]3)C2)n(C)c1", "% Inhibition": -8, "Z score": 1.29}
{"smiles": "N#Cc1cnc(N[C@H]2CC23CC3)c(F)c1", "% Inhibition": -11, "Z score": 2.11}
{"smiles": "CCOC(=O)N1CCN(C(=O)c2ccsc2)CC1", "% Inhibition": -2, "Z score": 0.26}
{"smiles": "O=C(c1cncc(Br)c1)N1CCC[C@H](Oc2ccncn2)C1", "% Inhibition": 11, "Z score": -1.53}
{"smiles": "CCC(=O)N(CC1CCN(C2Cc3ccccc3C2)CC1)C[C@H]1CCCO1", "% Inhibition": -9, "Z score": 1.83}
{"smiles": "N#Cc1nccnc1O[C@H]1CCN(C(=O)Cc2ccc(Cl)cc2)C1", "% Inhibition": -6, "Z score": 1.04}
{"smiles": "c1ccc(-c2onc3cc4c(cc23)OCCO4)cc1", "% Inhibition": -25, "Z score": 2.66}
{"smiles": "Cc1cccc(NC(=O)CN2CCC3(CCO3)CC2)c1", "% Inhibition": -1, "Z score": 0.22}
{"smiles": "Cc1ccc(C)c(C(O)CN(C)CC2CCS(=O)(=O)C2)c1", "note": "(stereo not drawn)", "% Inhibition": -16, "Z score": 1.65}
{"smiles": "CC(C)(C)c1csc(-c2cnccn2)n1", "% Inhibition": -15, "Z score": 1.5}
{"smiles": "CC(C)COc1ccc(C(C)(C)N)cc1", "% Inhibition": -1, "Z score": 0.15}
